From patent US9943610B2, “Hydrophilic self-immolative linkers and conjugates thereof” (BioAlliance C.V., priority 2012, dated 2018)

Experiments:
[1] = system: colorectal cancer cell line DLD-1; test: In-vitro cytotoxicity by WST-1 assay, DLD-1; type: cell-based; details: DLD-1 (binding-positive), Table 6, below 10% is background
Protocol: The colorectal cancer cell line DLD-1 (BCRC, Cat. No. 60132) was cultured in RPMI Medium 1640 supplemented with 10% FBS, 1 mM sodium pyruvate (GIBCO, Cat. No. 11360), and 100 U/mL penicillin/100 μg/mL streptomycin.
(§1) In-Vitro Cytotoxicity by WST-1 Assay
(§2) Cancer cells SNU-16, Panc 02.03B, COLO 205 and SW480 were seeded 1×10^4, 3×10^3, 2×10^4 and 1.2×10^4 cells/well, respectively, on 96-well microtiter plates. Cancer cells DLD-1 and PANC-1 were seeded 1×10^4 cells/well on 96-well microtiter plates. h5F1Ca.1/Tap18H ADC, h5F1Ca.1/Tap18Hr1 or naked antibody h5F1Ca.1 were added in triplicate at final concentration of 3 μg/mL and 1 μg/mL or final indicated concentrations and a final volume 200 μL/well. Cells were then incubated at 37° C. and 5% CO2, and cell viability was detected at 72 hours or 96 hours by cell proliferation reagent WST-1 (Roche (Nutley, N.J.), Cat. No. 11644807001) following manufacturer's instructions. In brief, at the end of incubation 100 μL, of medium was withdrawn and 10 μL/well of WST-1 was added to the tested cell line. After optimal color development (when OD450 of untreated control ≥1.00), absorbance at 450 nm (OD450 value) was measured by spectrophotometer (Molecular Devices (Sunnyvale, Calif.), VERSAmax microplate reader). The mean of the triplicates was obtained and background (medium control) was subtracted. […]

[2] = system: pancreatic cancer cell line PANC-1; test: In-vitro cytotoxicity by WST-1 assay, PANC-1; type: cell-based; details: PANC-1 (binding-negative), Table 6, below 10% is background
Protocol: The pancreatic cancer cell line PANC-1 (BCRC, Cat. No. 60284) was cultured in Dulbecco's modified Eagle's medium (GIBCO, Cat. No. 11965) supplemented with 10% FBS and 100 U/mL penicillin/100 μg/mL streptomycin.
as §1, §2

[3] = DLD-1 xenograft, SCID mice, 3 mg/kg at days 1 and 5, after treatment
Protocol: To establish a subcutaneous xenograft model, 5×10^6 DLD-1 colorectal cancer cells were implanted into the right flank of C.B-17 SCID mice (Lasco, Taipei, Taiwan). Drug-conjugated c5D7 ADC was administered intravenously at 3 mg/kg at days 1 and 5 post tumor inoculation. Tumor volume was measured twice weekly with a caliper in two perpendicular dimensions, and calculated according to the formula (0.52×length×width×width).

[4] = system: colorectal cancer DLD-1; test: ADC treatment in DLD-1 subcutaneous xenograft model; type: in vivo, C.B-17 SCID mice; details: DLD-1 xenograft, SCID mice, 3 mg/kg intravenously at days 1 and 5; vehicle approached 500 mm^3 at day 14

B1: c5D7/Tap18Hr1: ADC of chimeric anti-transferrin receptor antibody c5D7 conjugated to monomethyl dolastatin 10 via piperazine containing linker (Tap-18Hr1, Table 5) (conjugate)
heavy: EVQLQQSGPEVVKPGASMKMSCKTSGYKFTGYYMDWVKQSLGASFEWIGRVIPSNGDTRYNQKFEGKATLTVDRSSSTAYMELNSLTSEDSAVYYCARKPLSGNAADYWGQGTSVTVST[letters of human IgG1 constant region omitted]
light: ETTVTQSPASLSVATGEKVTIRCITSTDIDDDMNWYQQKPGEPPKLLISDGNTLRPGVPSRFSSSGYGTDFVFTIENTLSEDITDYYCMQSDNMPFTFGSGTKLEIKRTVAAPSVFIFPPSDEQLKSGTASVVCLLNNFYPREAKVQWKVDNALQSGNSQESVTEQDSKDSTYSLSSTLTLSKADYEKHKVYACEVTHQGLSSPVTKSFNRGEC
Q: What does the source list for B1?
A: % inhibition ([1]; 0.1 μg/mL): 35.4%; % inhibition ([1]; 0.3 μg/mL): 62.0%; % inhibition ([2]; 0.1 μg/mL): 2.9%; % inhibition ([2]; 0.3 μg/mL): 1.4%; body weight [3]: remained unchanged; body weight, average [3]: 25 g; tumor growth [4]: completely suppressed tumor growth
